Laboratory results reported in patent publication US20250000991A1, “NECTIN-4 ANTIBODIES AND ANTIBODY-DRUG CONJUGATES” (Eli Lilly and Company, priority 2023, published 2025).
Several values for one entry are separate records, joined by “and”; a condition that tells them apart may be missing. Identical values can stand only once.

B1: Ab7 (conjugate)
heavy: QVQLVQSGAEVKKPGASVKVSCKASGYTFTNYYMHWVRQAPGQGLEWMGIINPSSGSASYAQKFQGRVTMTRDTSTSTVYMELSSLRSEDTAVYYCAREGVGRDILQAFDIWGQGTLVTVSSASTKGPSVFPLAPSSKSTSGGTAALGCLVKDYFPEPVTVSWNSGALTSGVHTFPAVLQSSGLYSLSSVVTVPSSSLGTQTYICNVNHKPSNTKVDKRVEPKSCDKTHTCPPCPAPEAAGGPSVFLFPPKPKDTLMISRTPEVTCVVVSVSHEDPEVKFNWYVDGVEVHNAKTKPREEQYNSTYRVVSVLTVLHQDWLNGKEYKCKVSNKALPAPIEKTISKAKGQPREPQVYTLPPSREEMTKNQVSLTCLVKGFYPSDIAVEWESNGQPENNYKTTPPVLDSDGSFFLYSKLTVDKSRWQQGNVFSCSVMHEALHNHYTQKSLSLSPGK
light: QSVLTQPPSVSEAPRQRVTISCSGSSSNIGNNAVNWYQQLPGKAPKLLIYYDDLLPSGVSDRFSGSKSGTSASLAISGLQSEDEADYYCAAWDDSLNGHVFGGGTKLTVLGQPKAAPSVTLFPPSSEELQANKATLVCLISDFYPGAVTVAWKADSSPVKAGVETTTPSKQSNNKYAASSYLSLTPEQWKSHRSYSCQVTHEGSTVEKTVAPTECS
B2: Ab2 (conjugate)
heavy: EVQLVESGGGLVQPGGSLRLSCAASGFTFSSYDMHWVRQATGKGLEWVSAIGTVGDTYYPGSVKGRFTISRENAKNSLYLQMNSLRAGDTAVYYCAREWNGMDVWGQGTTVTVSSASTKGPSVFPLAPSSKSTSGGTAALGCLVKDYFPEPVTVSWNSGALTSGVHTFPAVLQSSGLYSLSSVVTVPSSSLGTQTYICNVNHKPSNTKVDKRVEPKSCDKTHTCPPCPAPEAAGGPSVFLFPPKPKDTLMISRTPEVTCVVVSVSHEDPEVKFNWYVDGVEVHNAKTKPREEQYNSTYRVVSVLTVLHQDWLNGKEYKCKVSNKALPAPIEKTISKAKGQPREPQVYTLPPSREEMTKNQVSLTCLVKGFYPSDIAVEWESNGQPENNYKTTPPVLDSDGSFFLYSKLTVDKSRWQQGNVFSCSVMHEALHNHYTQKSLSLSPGK
light: DIVMTQSPDSLAVSLGERATINCKSSQSVLYNSNNKNYLAWYQQKPGQPPKLLIYWASTRESGVPDRFSGSGSGTDFTLTISSLQAEDVAVYYCQQFYTTPYSFGQGTKVEIKRTVAAPSVFIFPPSDEQLKSGTASVVCLLNNFYPREAKVQWKVDNALQSGNSQESVTEQDSKDSTYSLSSTLTLSKADYEKHKVYACEVTHQGLSSPVTKSFNRGEC

Assays:
[1] = target: T1, human Nectin-4 (Homo sapiens, UniProt Q96NY8); assay: Surface plasmon resonance (Biacore 8K+) binding of nectin-4 ADCs to human Nectin-4; conditions: human Nectin-4, 37° C., ADC Formula XI DAR 8; n=3 mean ± SD, n=2 replicate values
T1 construct: His tag; purchased Acro Biosystems NE4-H52H3
T1 sequence (Q96NY8 32-510): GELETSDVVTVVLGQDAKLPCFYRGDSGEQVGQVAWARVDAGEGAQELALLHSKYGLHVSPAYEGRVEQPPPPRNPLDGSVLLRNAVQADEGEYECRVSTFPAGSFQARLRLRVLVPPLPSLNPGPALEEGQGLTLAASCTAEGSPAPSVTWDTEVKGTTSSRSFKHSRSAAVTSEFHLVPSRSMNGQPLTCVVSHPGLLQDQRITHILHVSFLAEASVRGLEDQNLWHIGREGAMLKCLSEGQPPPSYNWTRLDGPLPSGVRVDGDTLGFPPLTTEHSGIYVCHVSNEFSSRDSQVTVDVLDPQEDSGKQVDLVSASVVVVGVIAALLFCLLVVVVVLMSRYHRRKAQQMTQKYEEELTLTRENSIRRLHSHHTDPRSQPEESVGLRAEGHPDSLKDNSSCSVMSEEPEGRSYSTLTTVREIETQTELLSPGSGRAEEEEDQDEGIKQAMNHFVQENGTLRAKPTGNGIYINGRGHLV
Procedure: (§1) An anti-human Fc sensor surface was prepared by amine-coupling of goat anti-human IgG Fc (Southern Biotech Cat. No. 2014-01, Birmingham, AL) to a Biacore Series S CM4 (Cytiva Cat. No. BR-100534) sensor surface at 25° C. For immobilization, a running buffer of 10 mM HEPES, 150 mM NaCl, 0.05% Tween-20, pH 7.4 was used. Flow cells 1 & 2 of all 8 channels were activated with a 1:1 (v/v) mixture of 400 mM 1-Ethyl-3-(3-dimethylaminopropyl) carbodiimide hydrochloride (EDC) and […] N-Hydroxysuccinimide (NHS) at a flow rate of 10 uL/min for 7 minutes. Then the anti-human IgG Fc capture reagent was coupled to the sensor surface (diluted to 50 μg/mL in 10 mM Acetate pH 4.5 buffer) by injecting it in all flow cells and channels at a flow rate of 10 uL/min for 7 minutes. Remaining active groups were blocked by injecting 100 mM ethylenediamine (in 200 mM Borate buffer, pH 8.5) in all flow cells and channels at a flow rate of 10 uL/min for 7 minutes. All channels and flow cells were then preconditioned using three consecutive 1-minute injections of 75 mM phosphoric acid at 10 uL/min.
(§2) In each analysis cycle, a different ADC was captured on flow cell 2 of each channel by injecting it at 5 μg/mL and 10 uL/min. After capture, the same analyte was injected on flow cells 1 and 2 in all 8 channels for 2 minutes at 30 uL/n and dissociation was monitored for 10 minutes. After dissociation, all surfaces were regenerated with three 1-minute injections of 5 mM phosphoric acid at 10 uL/min. ADC capture and analyte cycles were repeated to obtain analyte binding of each ADC at concentrations of 0, 2.5, 7.4, 22, 67, 200 and 600 nM nectin-4.
(§3) Sensorgram data were fit globally with the default 1:1 binding model in Biacore Insight Evaluation Software v3.0.12.15655.

[2] = test system: cyno Nectin-4; assay: Surface plasmon resonance (Biacore 8K+) binding of nectin-4 ADCs to cyno Nectin-4; conditions: cyno Nectin-4, 37° C., ADC Formula XI DAR 8, n=1
Procedure: as §1, §2, §3

[3] = test system: rat Nectin-4; assay: Surface plasmon resonance (Biacore 8K+) binding of nectin-4 ADCs to rat Nectin-4; conditions: rat Nectin-4, 37° C., ADC Formula XI DAR 8, n=1
Procedure: as §1, §2, §3

[4] = test system: UMUC3-Luc-GFP + UMUC3-hNectin4 clone F7; assay: Bystander killing of UMUC3-Luc-GFP cells co-cultured with UMUC3-hNectin4 clone F7 (ONE-Glo); format: cell-based, human; conditions: UMUC3-hNectin-4 cloneF7/UMUC3-Luciferase-GFP 4:1, 5 days
Procedure: UMUC3 cell line was engineered to express human Nectin4 and two clonal populations with different levels of expression were selected. In flat white clear-bottom 96-well plates, UMUC3-hNectin4 clone F7/UMUC3-Luc-GFP cells were mixed and seeded at a total of 1500 cells/well/100 ul with a ratio of 4:1 in assay medium (MEM+1× GlutaMax+10% Heat Inactivated Fetal Bovine Serum+1 mM sodium pyruvate). UMUC3-hNectin4 clone E3/UMUC3-Luc-GFP cells were mixed and seeded at a total of 2100 cells/well/100 ul with a ratio of 6:1 in assay medium. UMUC3-Luc-GFP cells were negative for nectin-4 expression. Plates were incubated at 37° C. with 5% CO2 overnight. […] Plates were read after 5-days treatment using ONE-GloTM Luciferase Assay System. […] Luminescence was read in the SpectraMax M5e. […] Percentage of UMUC3-Luc-GFP killing was calculated against no treatment as 0%. Data was graphed and analyzed using Graphpad Prism version 9.5.1. IC50 was determined via log(inhibitor) vs. response (three parameters) curve fitting for bystander activity and log(inhibitor) vs. response (four parameters) for free payload cytotoxicity. […] In experiments run as essentially described herein, the bystander effects of four nectin-4 ADCs described herein and enfortumab vedotin were evaluated using the UMUC3-hNectin-4 cloneF7/UMUC3-Luciferase-GFP cell pair. […]

[5] = test system: T24 mScarlet clone 5 Nectin-4 negative cells; assay: Bystander killing of T24-mScarlet clone 5 cells co-cultured with T24-human nectin4 clone108 (imaging); format: cell-based; conditions: T24-mScarlet clone5 : T24-human nectin4 clone108 9:1, 5 days, ADC Formula XI DAR 8; read-out: IC50 of bystander effect
Procedure: T24 cell line was engineered to express mScarlet and clonally selected to test in bystander assay. T24-mScarlet clone5 and T24-human nectin4 clone108 were mixed and seeded at a total of 1000 cells/well/100 ul with a ratio of 9:1 in culture medium (McCoy's 5A+1× GlutaMax+10% Heat Inactivated Fetal Bovine Serum+400 μg/ml G418) in flat clear bottom 96-well plates. T24 mScarlet clone 5 cells were negative for nectin-4 expression. Plates were incubated at 37° C. with 5% CO2 overnight. Next day, ADCs were added at final working concentration from 50 nM, 1:4 serially diluted in culture medium. Plates were covered with Breathe-Easy® sealing membrane, placed in BioSpa and scanned in Cytation5 every day for 5 days.
Images of T24-mScarlet cells were captured and analyzed by Cytation5 with Gen5 Image Prime 3.11. Percentage of T24-mScarlet cell killing was calculated by decreased Integrated Intensity (area×mean intensity), normalized to zero hour and no treatment. Data was graphed and analyzed using GraphPad Prism version 9.5.1. IC50 was determined via log(inhibitor) vs. response-variable slope (four parameters) curve fitting.

[6] = test system: T24-hNectin-4 clone 14 cells (MMAE-resistant); assay: ADC cytotoxicity in MMAE-resistant cells (CellTiter-Glo); format: cell-based, human; conditions: T24-hNectin-4 clone 14, 5 days
Procedure: In T24 nectin-4 cells that are resistant to MMAE, two nectin-4 ADCs described herein and enfortumab vedotin were tested for activity. T24-hNectin-4 clone 14 cells were seeded at 500 per well in 100 ul culture medium, in white clear-bottom 96-well tissue culture plates and incubated at 37° C. with 5% CO2 overnight. The next day each ADC was serially diluted 1:4, with a starting concentration of 400 nM, in culture medium. One-hundred ul of each ADC dilution was added per well and the plates were covered with a Breathe-Easy® sealing membrane and incubated at 37° C. with 5% CO2. After 5 days of treatment, the plates were removed from the incubator, placed at room temperature for 15 minutes, and 100 ul medium per well was removed. One hundred ul of CellTiter-Glo reagent was added per well and the plates were incubated at room temperature for 10 minutes. RLUs (Relative Light Units) were obtained by SpectraMax M5e with SoftMax Pro 5.4. Percentage of cell killing was calculated against DMSO only (for free payloads) or no treatment (for ADCs) as 0%. Data was graphed and analyzed using Graphpad Prism version 9.5.1. IC50s were determined via log(inhibitor) vs. response-variable slope (four parameters) curve fitting.

Molecule | ka [1] | kd [1] | ka [2] [M⁻¹ s⁻¹] | kd [2] [s⁻¹] | ka [3] [M⁻¹ s⁻¹] | kd [3] [s⁻¹] | Bystander effect (in words) [4] | IC50 [5] [pM] | Activity against MMAE-resistant cells [6]
B1 | 5.91 × 10^5, 1/Ms and 5.64 × 10^5 1/Ms | 2.43 × 10^−2, 1/s and 2.12 × 10^−2 1/s | 1.18e+06 | 0.0464 | 404000 | 0.0296 | potent bystander effects | 83.6 | –
B2 | (1.02 ± 0.34) × 10^6 1/Ms | (2.14 ± 0.66) × 10^−2 1/s | 1.01e+06 | 0.02 | 695000 | 0.0753 | potent bystander effects | 62.7 | retained activity
